Assay results taken from paper PMC4336329 (PLoS ONE, 2015).
Among all 310,000 compounds or so, about 14,000 (4.5%) showed an effect of 50% or more. Effects have a minus sign here. Some of the results follow.

target: human ether-à-go-go-related gene (hERG) potassium channel (human, UniProt Q12809); experiment: primary screen, population patch clamp on CHO cells stably expressing hERG
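Further: peak tail current of the secondary pulse compared with the same well before compound.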

Sequence of human ether-à-go-go-related gene (hERG) potassium channel (Q12809 whole entry, looked up): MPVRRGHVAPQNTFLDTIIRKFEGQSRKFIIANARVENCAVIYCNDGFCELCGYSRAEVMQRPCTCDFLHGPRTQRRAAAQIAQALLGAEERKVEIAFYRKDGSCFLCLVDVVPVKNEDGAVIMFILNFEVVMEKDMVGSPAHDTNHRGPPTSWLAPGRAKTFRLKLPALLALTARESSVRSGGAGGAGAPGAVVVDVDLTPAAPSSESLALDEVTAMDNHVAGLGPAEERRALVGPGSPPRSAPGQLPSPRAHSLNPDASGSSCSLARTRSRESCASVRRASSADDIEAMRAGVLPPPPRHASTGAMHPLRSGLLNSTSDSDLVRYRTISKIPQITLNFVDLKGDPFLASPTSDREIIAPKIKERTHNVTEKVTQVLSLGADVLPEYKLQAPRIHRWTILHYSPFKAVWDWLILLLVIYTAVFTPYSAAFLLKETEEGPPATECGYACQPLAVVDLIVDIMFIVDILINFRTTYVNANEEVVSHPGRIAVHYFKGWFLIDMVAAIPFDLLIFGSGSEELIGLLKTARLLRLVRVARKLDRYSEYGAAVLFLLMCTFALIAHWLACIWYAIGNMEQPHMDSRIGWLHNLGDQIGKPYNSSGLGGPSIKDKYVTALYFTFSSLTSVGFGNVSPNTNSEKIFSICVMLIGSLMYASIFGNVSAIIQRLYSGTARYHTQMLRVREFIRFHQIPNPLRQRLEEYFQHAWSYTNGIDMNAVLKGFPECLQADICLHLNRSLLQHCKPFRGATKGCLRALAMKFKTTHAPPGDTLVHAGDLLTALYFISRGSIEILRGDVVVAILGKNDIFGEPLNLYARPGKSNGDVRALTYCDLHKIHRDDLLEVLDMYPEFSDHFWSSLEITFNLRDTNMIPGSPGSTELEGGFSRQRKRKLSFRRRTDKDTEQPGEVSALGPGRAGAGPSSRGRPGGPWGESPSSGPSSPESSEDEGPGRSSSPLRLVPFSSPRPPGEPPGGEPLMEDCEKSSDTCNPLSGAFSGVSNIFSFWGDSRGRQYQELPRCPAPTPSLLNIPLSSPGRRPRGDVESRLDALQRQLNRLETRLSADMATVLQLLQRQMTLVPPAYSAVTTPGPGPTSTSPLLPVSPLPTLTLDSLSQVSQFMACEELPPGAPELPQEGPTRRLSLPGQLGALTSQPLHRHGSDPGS

Structure (SMILES) | hERG current change (%, negative = inhibition) at 10uM [%]
Cc1cccc(-c2onc3ccc(C4(C)OCCO4)cc23)c1 | -1.6
CCOC(=O)c1cc(NC(=O)c2c(C)noc2C)cc(C(=O)OCC)c1 | -3.5
CCOC(=O)c1ccc(NC(=O)CN(Cc2ccc(Cl)cc2)S(C)(=O)=O)cc1 | -6.57
O=C(NC1CCCCCC1)c1cccc(N2CCCC2=O)c1 | 4.39
O=C(CSc1nnc(CNC(=O)c2ccc(F)cc2)o1)c1ccccc1 | 3.47
CN(C)S(=O)(=O)c1ccc(NC(=O)COc2ncnc3c2cnn3-c2ccccc2)cc1 | -19.8
CCC(C)NC(=S)Nc1ccc(C(=O)OC)cc1 (stereo not drawn) | 15
O=C(NCCc1ccccc1)C1CCCN(S(=O)(=O)c2cccs2)C1 (stereo not drawn) | -28.9
Cc1c(OCC(=O)NC(Cc2ccc(Cl)cc2)C(=O)O)ccc2c3c(c(=O)oc12)CCCC3 (stereo not drawn) | 20
O=C(CCCN1C(=O)/C(=C\c2cccs2)SC1=S)NNC(=O)c1ccncc1 | 0.291
O=C(CSc1nc(=O)n(CCCN2CCOCC2)c2c1CCCC2)Nc1ccccc1Cl | -42.9
CCN(CC)S(=O)(=O)c1cc(C)c(C)cc1Br | -14.8
CS(=O)(=O)N1CCC(Oc2cccc(C(=O)NCCCC3CCCC3)c2)CC1 | -30.3
Cc1cc(-c2ccc(C)c(S(=O)(=O)N3CCN(c4ccc(F)cc4)CC3)c2)on1 | -8.14
O=C(Cn1ncc(Cl)c(Cl)c1=O)c1ccc(Cl)cc1 | -15.8
CCn1nc(CC(C)C)cc1C(=O)N1CCCC(Nc2ccc(F)cc2)C1 (stereo not drawn) | -3.94
Cc1ccc(N2CS(=O)(=O)/C(=C/N(C)C)C2=O)cc1 | -5.73
COc1ccc(NC(=O)Cc2c(C)n(C(=O)c3ccc(Cl)cc3)c3ccc(OC)cc23)cc1 | 20.8
Cc1cc(Nc2ccccc2)n(-c2cccc(Cl)c2)n1 | -43.1
O=C(/C=C/c1ccco1)Nc1ccc(-c2nc3ccccc3[nH]2)cc1 | -0.11
O=C(NNC(=O)c1ccccc1Cl)c1ccncc1 | -1.7
COc1ccc(NC(=O)CNC(=O)N2CC(=O)Nc3ccccc32)cc1OC | 25.9

Structure (SMILES) | hERG current change (%, negative = inhibition) at 10uM [%]
COc1ccc(CC(=O)Oc2ccccc2Cl)cc1S(=O)(=O)N1CCOCC1 | 8.06
CC(C)(NO)/C(=N/O)c1ccc(Br)cc1 | 0.417
COc1ccc(C(=O)Cc2ccc(OC)c(OC)c2)cc1 | 4.74
CN(Cc1ccccc1)C(=O)CN(C)S(=O)(=O)c1ccc(F)cc1 | 1.59
CCOC(=O)C(C(=O)OCC)c1cc(Br)c2noc3c2c1C(=O)c1ccccc1-3 | 13.6
O=C(O)c1cccc(N(CCO)CCO)c1 | -1.13
CCC(=O)N1CCc2cc(S(=O)(=O)N3CCN(c4ccccc4Cl)CC3)ccc21 | 12.7
Cc1ccc(NC(=S)N2CCCCCC2)c(C)c1 | -32.1
Cc1ccc(S(=O)(=O)NCC(=O)OCc2ccccc2Br)cc1 | 0.59
COc1ccc(S(=O)(=O)NCC(=O)NCc2cc(=O)n(C)c(=O)n2C)cc1F | 12.6
Cc1nn(-c2ccccc2)c(C)c1/C=N/n1c(-c2ccccc2Br)n[nH]c1=S | -9.36
CCOC(=O)N1CCN(C(=O)c2oc3ccc(S(=O)(=O)N(CC)CC)cc3c2C)CC1 | -12
Cc1cc(N(CCO)CCO)ccc1C(c1ccc(N(CCO)CCO)cc1C)c1ccccc1Cl | -0.487
Cc1cc(N/C(=N\S(=O)(=O)c2ccc(F)cc2F)c2ccccc2)no1 | 1.05
Cc1cc(C(=O)Nc2sc3c(c2C#N)CCC(C)C3)no1 (stereo not drawn) | 1.44
NC(=O)C1CCN(C(=O)/C=C/c2cc(Br)ccc2F)CC1 | 2.78
Cc1ccccc1N=C1c2ccccc2C(=O)C1[N+](=O)[O-] (stereo not drawn) | -9.75
O=C(Nc1ccccc1F)N(CCCN1CCOCC1)Cc1cc2cc3c(cc2[nH]c1=O)OCCO3 | -4.62
O=C1Nc2ccc(Br)cc2C1=Nc1ccc(-c2nnc3n2CCCCC3)cc1 | 6.74
CC1CCCCC1N=CC1=C(O)CC(C)(C)CC1=O (stereo not drawn) | -12.9
Cc1cccc(/C=N/c2sc3c(c2C#N)CCN(Cc2ccccc2)C3)c1O | -12.2
CCOc1ccc(CN2CCNC(=O)C2CC(=O)NCCc2cnccn2)cc1 (stereo not drawn) | 15

Structure (SMILES) | hERG current change (%, negative = inhibition) at 10uM [%]
Cc1oc(-c2ccc(Cl)cc2)nc1CN1CCC(C(=O)NCCCN2CCCC(C)C2)CC1 (stereo not drawn) | -16.5
c1cnn(-c2nc(N3CCOCC3)nc(N3CCOCC3)n2)c1 | 0.156
CC(C)[C@H](NC(=O)c1ccccc1)C(=O)OCc1nc2scc(-c3ccccc3)c2c(=O)[nH]1 | 1.74
COc1ccc(Nc2cc(C(=O)NCCCN3CCN(C)CC3)c3ccccc3n2)c(OC)c1 | 6.82
O=S(=O)(c1ccccc1)N(CC(O)CN1CCCC1)c1ccccc1 (stereo not drawn) | -19
O=C(COc1cccc2cccnc12)NCc1cccs1 | 9.76
CCCN(CC1CC1)C(=S)Nc1ccc(Oc2ccccc2)cc1 | -4.88
CC(C)(C)S(=O)(=O)c1ccccc1-c1noc(-c2ccccc2)c1C(N)=O | 2.58
O=C(Nc1nc2ccccc2[nH]1)Nc1ccccc1F | 18.4
N#C/C(=C/c1ccccc1[N+](=O)[O-])C(=O)NCc1ccco1 | -11.4
Cc1cc(NC(=O)CSc2nc3ccccc3n2CC(=O)N2CCCCC2)no1 | -12.2
Cc1ccc(SCC(=O)Nc2ccc(-c3nnc(-c4ccco4)o3)cc2)cc1 | -0.93
O=C(CCc1ccccc1)N=C1SC2CS(=O)(=O)CC2N1c1cccc(F)c1 (stereo not drawn) | -1.95
CCc1ccc(-n2c(SCC(=O)N3Cc4ccccc4CC3C(=O)O)nnc2-c2ccncc2)cc1 (stereo not drawn) | 16.7
Cc1cc(=O)n(C)c(=O)n1CCCCCCN1CCCC1.O=C(O)C(=O)O | 8.96
Cc1ccc(NC(=S)N2CCN(S(=O)(=O)c3ccc(C)cc3)CC2)cc1 | 10.8
CCC(C(=O)n1cccc1C#N)c1ccccc1C (stereo not drawn) | 6.49
OCCN(Cc1ccccc1)Cc1ccc(Cl)cc1Cl | -14
CCOc1ccccc1OCC(=O)Nc1cc(S(=O)(=O)N2CCCCC2)ccc1N1CCN(CC)CC1 | -71.5
Cc1nnc2sc(COc3ccccc3)nn2c1=O | 18.7
Cc1ccc(NC(=O)/C=C\C(=O)NCC(=O)O)cc1 | 0.434
O=C(CCCN=C1NS(=O)(=O)c2ccccc21)OCC(=O)c1ccccc1Cl | -12.8

Structure (SMILES) | hERG current change (%, negative = inhibition) at 10uM [%]
NC(=O)c1cc(S(=O)(=O)Nc2cccc(F)c2)co1 | 2.91
Cc1c(NC(=O)C(C)OC(=O)c2cc(Cl)ccc2O)c(=O)n(-c2ccccc2)n1C (stereo not drawn) | 15.3
O=C(CSc1nc2ccccc2[nH]1)NC1CCS(=O)(=O)C1 (stereo not drawn) | -6.52
CCOC(=O)C(O)(c1ccc(N(C)C(=O)c2ccc(Cl)c(Cl)c2)cc1)C(F)(F)F (stereo not drawn) | -21.9
Cc1cc(Br)c2[nH]cc(CCNC(=O)c3ccco3)c2c1 | -27.4
Cc1noc(C)c1CNCc1ccccc1.O=C(O)C(=O)O | 19.7
CCCCN(C(=O)c1cccc(-n2cccc2)c1)c1c(N)n(CCC)c(=O)[nH]c1=O | 6.24
Cc1ccc(S(=O)(=O)N2CN(Cc3ccco3)c3nc4ccccc4nc32)cc1C | 2.04
Cc1ccc(S(=O)(=O)N2CCN(S(=O)(=O)c3ccc(C)cc3)C2c2ccccc2)cc1 | -3.36
COC(=O)c1ccc(C(=S)N2CCOCC2)cc1 | -10.5
O=C(NCC1CCCO1)c1ccc(CNS(=O)(=O)c2cccc(Cl)c2)cc1 (stereo not drawn) | 17.8
Cc1cc(Br)ccc1OCC(=O)NNC(=O)Cc1ccccc1 | 4.47
CCCCCC(O)(CCCCC)C(=O)NNc1ccccc1 | 0.155
CCc1ccc(N(CC(=O)N2CCN(Cc3ccccc3)CC2)S(C)(=O)=O)cc1 | -10.5
COc1ccc(C(=O)Nc2ccc(Nc3ccccc3)cc2)cc1OC | 23.5
COC(=O)c1ccc(C(=O)OCc2nc3cc4ccccc4cc3[nH]2)cc1 | 2.62
CCOc1ccc(NC(=O)CCC(=O)N2CCSc3ccccc32)cc1 | -16.3
C=CCNC(=S)NC(=O)c1ccc(C)c(Br)c1 | 3.39
Cc1cccc(Cn2nc(C)cc2NC(=O)CCCn2ccc([N+](=O)[O-])n2)c1 | -10.1
COc1ccc(CCNC(=O)c2ccccc2Cl)cc1OC | 7.72
COc1ccc(S(=O)(=O)N2CCCC2CNC(=O)c2cccc(OC)c2)cc1 (stereo not drawn) | -31.1
